According to the supplement of paper PMC3334620:
Over roughly 33,000 sequences, “E-score (-0.5 to 0.5)” has its median near -0.054; the highest 2% begin near 0.35. The list shows a part of the results.

Molecular target: T1, Stb5 (UniProt P38699)
T1 sequence: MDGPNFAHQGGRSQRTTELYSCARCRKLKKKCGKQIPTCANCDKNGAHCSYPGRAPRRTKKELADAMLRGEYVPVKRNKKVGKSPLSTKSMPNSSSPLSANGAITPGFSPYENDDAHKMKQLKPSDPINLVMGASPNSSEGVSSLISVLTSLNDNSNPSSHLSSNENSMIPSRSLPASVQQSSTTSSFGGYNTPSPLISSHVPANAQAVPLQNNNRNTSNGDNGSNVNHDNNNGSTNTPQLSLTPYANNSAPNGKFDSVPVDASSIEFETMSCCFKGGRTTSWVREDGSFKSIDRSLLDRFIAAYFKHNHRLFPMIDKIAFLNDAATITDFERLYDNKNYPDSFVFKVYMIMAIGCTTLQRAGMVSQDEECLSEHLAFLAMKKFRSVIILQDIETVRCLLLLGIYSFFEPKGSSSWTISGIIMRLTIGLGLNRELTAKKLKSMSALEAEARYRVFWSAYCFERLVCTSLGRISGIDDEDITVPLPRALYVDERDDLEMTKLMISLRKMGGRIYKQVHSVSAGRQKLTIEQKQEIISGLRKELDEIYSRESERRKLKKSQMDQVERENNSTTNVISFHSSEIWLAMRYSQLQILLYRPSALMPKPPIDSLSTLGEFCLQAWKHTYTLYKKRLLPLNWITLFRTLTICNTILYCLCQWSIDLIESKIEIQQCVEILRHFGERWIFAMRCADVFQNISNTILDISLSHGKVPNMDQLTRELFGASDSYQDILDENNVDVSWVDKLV
Assay: PBM E-score (8-mer binding enrichment) (E-score (-0.5 to 0.5)); higher = stronger / more preferred TF binding; most listed sequences are background and not binding sites
Conditions: protein concentration: 200 nM; construct: GST-full length
Experimental: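 Universal 'all 10-mer' protein binding microarrays (Agilent AMADID 015681) probed with GST-tagged S. cerevisiae TFs (full-length or DBD) made by in vitro transcription/translation (PURExpress), about 100-200 nM. Bound TF was detected with fluorescent anti-GST. Each ungapped 8-mer (which stands for itself and its reverse complement) is scored by the PBM enrichment score (E-score), a modified Wilcoxon-Mann-Whitney statistic from -0.5 to +0.5, computed with the Universal PBM Analysis Suite. Scale: above 0.35 generally sequence-specific binding.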

Sequence | PBM E-score
AGTCGGCC | 0.323
GGGTTTAA | 0.398
CTTACCAC | -0.0644
GAGGAATC | -0.107
AATACAAC | -0.0247
AATAACCA | -0.178
ATGATTAC | 0.0188
AGCCAGTA | -0.203
AAATAAAA | 0.108
ACATTCAG | -0.083
TAGATATA | 0.0276
AACGATGC | -0.174
ATGTTGAA | -0.0618
CTCAATGC | -0.0189
AGTTTCAA | -0.133
AAACGAGT | -0.0471
AGCTCCTC | -0.184
CCGTGCCC | 0.177
TCCACGAA | -0.0585
GACATTAA | 0.17
CCCCACGA | -0.124
CATGAGGA | -0.0503
CGACTTGC | -0.071
TACAGCTA | -0.121

Sequence | PBM E-score
ACGCAAAT | 0.0568
CGTGAAAC | -0.0554
GTGAGGAA | -0.0135
ACAATGAT | -0.194
AAGATCCA | -0.0416
CTTTCTTA | -0.0519
GTTCAATA | -0.0103
CTTCCGGA | 0.209
GCGTAATA | -0.0481
AGTACGCG | -0.124
GACTCGGC | -0.0915
GAATAGTC | -0.0467
TATCCCCA | 0.137
CACTCCAA | -0.0396
ATAGCTCC | 0.307
CAAAAGTC | -0.00605
ATGGGAAA | -0.302
GTGTCTTA | -0.0737
ACCATAGT | -0.0253
GCTATACA | 0.069
GTAAACAA | -0.0333
CGCCATCC | 0.0869
GCTTACGA | -0.183
GTAATAGA | -0.0887

Sequence | PBM E-score
ATTCTAAC | -0.0956
AAAGAAAA | 0.0994
CGTCTCAA | 0.0236
CCCCTTAC | -0.135
AATTTACA | -0.26
AGTATACG | -0.104
ATAACATC | 0.14
ACTACGCC | -0.0766
CAATAGCA | -0.0614
GGAAAGAA | -0.0287
ATGGTATA | -0.0447
TGGCGCCA | 0.0517
ACTGGGTC | -0.15
CCTGGGAC | -0.284
CGGGGTCA | 0.441
TGCGCCAA | -0.0016
AACCTCTG | -0.105
CCCTCCCA | 2e-05
AACAAGTA | -0.216
AATGCACT | -0.224
TACAAGCA | -0.0168
CCATTGTA | 0.00712
TGCCGACA | 0.298
ACGTATAT | -0.0179

Sequence | PBM E-score
CCCGAAAC | 0.049
ATCTGGTC | -0.153
GACAAACA | 0.0621
TGATGCAA | -0.0456
ACCCGGAA | 0.214
CAAAATTC | 0.153
CATCCCCG | 0.264
CTGAAGGC | -0.0853
GTCTAGAA | 0.0572
TATTTAGA | 0.103
ATGATAGC | 0.0851
AAGAATTA | -0.0159
GAAAGTCA | -0.148
AAAGCCCA | 0.0226
CGACCTCG | 0.0652
ACAATAAT | -0.0887
ACTGAAGC | -0.111
CACTCCTG | -0.218
TCACGAGA | -0.299
GCACCAGA | -0.129
CCGCTTTC | 0.243
AGCCGCAA | -0.00405
